{"source": "patent US20090018029A1", "about": "(AMBRX, published 2009)", "target": "T1, human growth hormone receptor on IM-9 cells (human, UniProt P10912 19-638)", "T1 sequence (looked up)": "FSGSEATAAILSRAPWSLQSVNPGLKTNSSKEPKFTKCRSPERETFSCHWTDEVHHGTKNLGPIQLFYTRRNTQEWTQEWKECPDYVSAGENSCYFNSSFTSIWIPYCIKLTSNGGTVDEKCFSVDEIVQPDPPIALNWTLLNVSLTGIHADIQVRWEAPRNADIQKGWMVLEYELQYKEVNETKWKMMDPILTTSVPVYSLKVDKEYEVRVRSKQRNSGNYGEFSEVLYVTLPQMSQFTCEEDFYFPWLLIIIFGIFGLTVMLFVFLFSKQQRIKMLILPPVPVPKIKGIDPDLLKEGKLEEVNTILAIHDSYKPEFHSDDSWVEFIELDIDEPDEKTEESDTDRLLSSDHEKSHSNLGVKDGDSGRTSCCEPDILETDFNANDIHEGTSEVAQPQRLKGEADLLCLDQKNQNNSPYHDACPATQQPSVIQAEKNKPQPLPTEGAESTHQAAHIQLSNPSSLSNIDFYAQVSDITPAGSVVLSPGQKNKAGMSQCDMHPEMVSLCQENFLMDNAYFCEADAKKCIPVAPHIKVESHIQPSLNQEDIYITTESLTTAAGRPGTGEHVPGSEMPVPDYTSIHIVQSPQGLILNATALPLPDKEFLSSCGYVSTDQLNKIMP", "experiment": "cell-based or functional assay", "data": [{"binder": "hGH G120R (ligand) not shown", "values": [{"measurement": "EC50 of STAT5 phosphorylation in IM-9 cells (phospho-STAT5 MFI, flow cytometry)", "result": "> 200", "unit": "µM"}]}]}
